Results reported in the antibiotic and cytotoxicity screens of Wong et al. (2023).
Some of the results follow.

How the values were obtained:
HSkMC = human skeletal muscle cells; assay: cytotoxicity call (relative viability < 0.9); conditions: 10 µM
HepG2 = assay: cytotoxicity call (relative viability < 0.9); conditions: 10 µM
S. aureus RN4220 = assay: growth inhibition call (relative growth <= 0.2); conditions: 50 µM

C[C@H](CO)N1C[C@H](C)[C@@H](CN(C)C(=O)CCCN(C)C)OCc2cn(nn2)CCCC1=O
inactive: cytotoxicity call (HSkMC) | cytotoxicity call (HepG2) | growth inhibition call (S. aureus RN4220)

C[C@@H]1CN([C@@H](C)CO)C(=O)Cc2cc(NC(=O)C3CC3)ccc2O[C@H]1CN(C)Cc1ccc2c(c1)OCO2
inactive: cytotoxicity call (HSkMC) | cytotoxicity call (HepG2) | growth inhibition call (S. aureus RN4220)

CC(C)c1nc(C(=O)N2CCC[C@@H](N)CC2)cs1
inactive: cytotoxicity call (HSkMC) | cytotoxicity call (HepG2) | growth inhibition call (S. aureus RN4220)

Cc1cc(C(=O)Nc2cccc3c2O[C@H](CN(C)S(=O)(=O)c2ccccc2)[C@H](C)CN([C@H](C)CO)C3=O)n(C)n1
inactive: cytotoxicity call (HSkMC) | cytotoxicity call (HepG2) | growth inhibition call (S. aureus RN4220)

COc1ccc(NC(=O)Nc2ccc3c(c2)C(=O)N([C@H](C)CO)C[C@H](C)[C@H](CN(C)C(=O)Nc2c(C)noc2C)OCCCC[C@@H](C)O3)cc1
inactive: cytotoxicity call (HSkMC) | cytotoxicity call (HepG2) | growth inhibition call (S. aureus RN4220)

CCS(=O)(=O)N[C@H]1C=C[C@@H](CC(=O)O)O[C@@H]1CO
inactive: cytotoxicity call (HSkMC) | cytotoxicity call (HepG2) | growth inhibition call (S. aureus RN4220)

C[C@H](CO)N1C[C@H](C)[C@H](CN(C)S(=O)(=O)c2ccccc2F)Oc2ncc(C#Cc3ccccc3F)cc2C1=O
inactive: cytotoxicity call (HSkMC) | cytotoxicity call (HepG2) | growth inhibition call (S. aureus RN4220)

O=C(C[C@@H]1C[C@H]2c3cc(NC(=O)c4ccc5c(c4)OCO5)ccc3O[C@H]2[C@H](CO)O1)NCc1ccccn1
inactive: cytotoxicity call (HSkMC) | cytotoxicity call (HepG2) | growth inhibition call (S. aureus RN4220)

C[C@@H]1CO[C@]2(O[C@H]3C[C@H]4[C@H]5C[C@H](O[C@H]6O[C@@H](C)[C@@H](O)[C@@H](O[C@@H]7O[C@@H](C)[C@H](O)[C@@H](O)[C@H]7O)[C@@H]6O)[C@H]6C[C@@H](O)CC[C@]6(C)[C@@H]5CC[C@]4(C)[C@H]3[C@@H]2C)[C@@H](O)C1
inactive: cytotoxicity call (HSkMC) | cytotoxicity call (HepG2) | growth inhibition call (S. aureus RN4220)
